The values below come from the supplement of paper PMC4604168 (melanoma cell lines).

Structures are written as SMILES. The list shows a part of the results. Repeats are few or missing, and single values can be far off.
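Note: cells treated in 1,536-well plates, then fixed and DAPI-stained, with nuclei counted from automated high-throughput microscope images.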

The test system of the test is A2058. In words: cell count relative to DMSO control; melanoma cells; higher = more viable cells. The following applies: library dose: standard library concentration; 72 h.
In turn, `NC(=O)c1ccc(N(C(N)=O)c2c(F)cccc2F)nc1-c1ccc(F)cc1F` + CCCS(=O)(=O)Nc1ccc(F)c(C(=O)c2c[nH]c3ncc(Cl)cc23)c1F [PLX4720] (first compound 2 µM, partner dose 0.4 µM) had a cell count of 69.9%.

As for `CC(C)(C)c1cnc(CSc2cnc(NC(=O)C3CCNCC3)s2)o1` + NCC(=O)Nc1ccc(-n2nc(C(F)(F)F)cc2-c2ccc3c(ccc4ccccc43)c2)cc1 [OSU03012] (first compound 0.05 µM, partner dose 5 µM), the cell count amounted to 70%.

`NC(=O)c1ccc(N(C(N)=O)c2c(F)cccc2F)nc1-c1ccc(F)cc1F` + O=C(CCCCCCC(=O)Nc1ccccc1)NO [vorinostat] (first compound 2 µM, partner dose 0.4 µM) had a cell count of 86%.

Compound `NC(=O)c1ccc(N(C(N)=O)c2c(F)cccc2F)nc1-c1ccc(F)cc1F` + CN(C)S(=O)(=O)c1ccc2c(c1)/C(=C/c1cc3c([nH]1)CCCC3)C(=O)N2 [SU6656] (first compound 2 µM, partner dose 2 µM) gave a cell count of 76.2%.

`Cc1ccc(NC(=O)c2cccc(N(C)C)c2)cc1NC(=O)c1ccc(O)cc1` + O=C(Nc1cccc(Cl)c1)Nc1ncc(CCNc2ncnc3ccsc23)s1 [SNS314] (first compound 10 µM, partner dose 0.004 µM): the cell count came out at 78.5%.

Compound `CC(C)(C)c1cnc(CSc2cnc(NC(=O)C3CCNCC3)s2)o1` + O=S(=O)(c1ccccc1)N(CC(F)(F)F)c1ccc(C(O)(C(F)(F)F)C(F)(F)F)cc1 [T0901317] (first compound 0.05 µM, partner dose 7 µM) yielded a cell count of 85.7%.
